# In PMC12040169 (PLOS Biology, 2025):
# Some of the results follow.
# Tested on: T1, C. trachomatis L2/434/Bu expressing GFP (CTL2-GFP)
# T1 construct: L2/434/Bu GFP intracellular growth in HeLa cells
# Set-up: species or system HeLa; C. trachomatis total inclusion area by high-content imaging, normalised to DMSO
# Conditions: total inclusion area; 28.5 h, 10 µM; inhibitor
# Method in brief: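 Following bulk GFP and resorufin fluorescence reads, infected cells were fixed, Hoechst-stained and imaged on a high-content platform. Inclusion total area and number per well served as growth proxies; nuclei counts indicated host viability. MICs were derived as for the fluorescence assay.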
row,Structure (SMILES),% of control remaining
1,CN(C)S(=O)(=O)c1cccnc1OCC(O)CNC(C)(C)C (stereo not shown) [CBK058059],77.8563
2,COCc1cc(C)nc(OCC(=O)N2CCCCC2)c1C#N [CBK270228],124.064
3,CC1CN(c2cc(CNc3ncccc3Cl)ccn2)CCO1 (stereo not shown) [CBK306456],48.3722
4,CCOC(=O)N1CCN(C(=O)CCC(=O)O)CC1 [CBK287075],110.955
5,CCNC(=O)c1ccc(-n2cccn2)c(C#Cc2cccnc2)c1 [CBK283150],83.5135
6,Cc1ccc(SCCC(=O)NC(CCC(=O)O)C(=O)O)cc1 (stereo not shown) [CBK295173],120.175
7,CCOc1ccc(CN2CC3CCCN3C[C@H]2C)cc1 (stereo partly shown) [CBK285422],107.713
8,COc1ccc(NC(=O)c2ccc3nsnc3c2)cc1 [CBK263160],78.3318
9,O=S1(=O)CC(OS(=O)(=O)c2ccc(Cl)cc2)C(OS(=O)(=O)c2ccc(Cl)cc2)C1 (stereo not shown) [CBK262049],92.319
10,CS(=O)(=O)Nc1nccnc1N1CCN(C(=O)c2ccno2)CC1 [CBK048861],74.591
11,CCC(C)(C)c1ccc(S(=O)(=O)N2CCN(Cc3c(C)nn(C)c3C)CC2)cc1 [CBK062835],81.6856
12,OCCNc1ncnc2c1ncn2Cc1ccccc1 [CBK287933],105.759
13,Cc1nn(C)cc1-c1cncn1CC1(N(C)C)CCC(C)CC1 (stereo not shown) [CBK281799],109.009
14,Cc1nc(CCNC(=O)C2CC(c3cccc(F)c3)=NO2)cs1 (stereo not shown) [CBK305798],57.3606
15,Cc1noc2nc(C3CCN(C(=O)C4CC4)CC3)cc(C(F)F)c12 [CBK285306],121.21
16,c1cnc(N2CCN(CC3CC3)CC2)c(OCCN2CCOCC2)n1 [CBK082909],104.492
17,O=C(c1ccc[nH]1)N1CCc2ccccc21 [CBK200285],82.646
18,O=C(NCc1c(F)cccc1F)c1ccc(-c2ccc(OC(F)(F)F)cc2)nc1 [CBK161007T],69.9285
19,O=C(Cn1nnc2ccccc2c1=O)N1CCCC(C(F)(F)F)C1 (stereo not shown) [CBK305900],49.8124
20,COc1ccc(C2(C(=O)NCCCN3CCN(C)CC3)CC2)cc1 [CBK149822],89.3242
21,Cc1nc(C2(O)CCCN(C3CCCC3)CC2)sc1COc1ccc(Cl)cc1 (stereo not shown) [CBK285940],83.0929

row,Structure (SMILES),% of control remaining
1,CN(c1ncc(-c2ccccc2)cc1C(=O)NCc1cccnc1)S(C)(=O)=O [CBK076507],62.7727
2,COc1ccc(C(=O)Nc2c(C)nn(C)c2N2CCNCC2)cc1 [CBK050306T],99.4959
3,Cn1ccnc1C1(O)CCN(C(=O)Nc2ccccc2Cl)CC1 [CBK282278],65.0001
4,CCC(CO)Nc1nccnc1-c1cccc(C(=O)N2CCN(C)CC2)c1 (stereo not shown) [CBK037087],133.735
5,COc1ccc(-c2cccc(C3CCCN(C(=O)c4ccc(F)cc4)C3)n2)cc1 (stereo not shown) [CBK286107],101.451
6,COc1cccc(-c2noc(C3CCN(CCc4ccc(F)cc4)CC3)n2)c1 [CBK051461],96.4123
7,O=C(Nc1ccc(S(=O)(=O)Nc2ncccn2)cc1)c1cc([N+](=O)[O-])ccc1Cl [CBK263717],121.235
8,O=C(CNC(=O)c1ccc(Br)cc1)NC1CCCC1 [CBK269591],99.3129
9,O=C(NCc1ccco1)c1ccc(-c2ccoc2)nc1 [CBK156279],99.7082
10,CCOC(=O)c1c(NC(=O)c2ccccc2C(=O)O)sc2c1CCCC2 [CBK116364],96.2712
11,CC(C)c1nccn1-c1ccc(NC(=O)CCCn2ccnc2)cc1 [CBK281380],94.3997
12,CCOC(=O)c1ccc(-c2nccnc2Oc2cccc(OC)c2)cc1 [CBK107115],94.248
13,CS(=O)(=O)c1ccc(Cn2ccnc(N3CCC(Sc4ccccc4)CC3)c2=O)cc1 [CBK144444],87.1596
14,O=C(CCn1cnc2ccccc21)NNC(=O)Nc1cccc(C(F)(F)F)c1 [CBK269093],99.7026
15,Cc1nccn1CCNC(=O)c1cc(C2CCCCC2)no1 [CBK283295],107.778
16,COc1cc(Cn2ncc(N3CCCCC3)cc2=O)cc(OC)c1 [CBK307662],95.9701
17,Nc1nonc1-c1cccnc1 [CBK006120],92.0778
18,O=C(O)CC1S/C(=N/N=C2/C(=O)Nc3ccccc32)N(c2ccc(O)cc2)C1=O (stereo not shown) [CBK263723],96.2767
19,O=C(CCc1nc(-c2ccccc2F)no1)Nc1ccccc1[N+](=O)[O-] [CBK268341],99.8734
20,CNS(=O)(=O)c1ccc2c(c1)CCN2C(=O)C1C2CCCCC21 (stereo not shown) [CBK281521],99.8195
21,COc1cccc(C2CCCN2C(=O)CC2CCN(C(=O)CC3CCCCC3)CC2)c1 (stereo not shown) [CBK286264],99.9745

row,Structure (SMILES),% of control remaining
1,CCCc1nc(CN2CCN(c3ccc4nncn4n3)CC2)cs1 [CBK305330],75.5424
2,Nc1ncc(-c2ccc(Cl)cc2)nc1-c1ccc(N2CCOCC2)cc1 [CBK063953],81.9331
3,CSc1nnc(CC2CCN(C(=O)c3cc(C)on3)CC2)n1C [CBK307481],74.8331
4,Cc1ccc(-c2nn(CCC#N)cc2C(=O)N2CCOCC2)cc1 [CBK305939],7.542
5,CC(C)C(=O)NC(NC(=S)Nc1cccc2cccnc12)C(Cl)(Cl)Cl (stereo not shown) [CBK261051],89.866
6,CC(=O)N[C@H]1CC[C@]2(C)CCC([C@H](C)C(=O)NCCN3CCOCC3)[C@H](O)[C@H]2[C@@H]1C (stereo partly shown) [CBK289434],87.1246
7,Oc1ccccc1CN1CCN(Cc2ccccc2O)C1c1ccccc1Br [CBK262050],92.304
8,Cc1cccc2sc(NC(=O)c3ccccc3)nc12 [CBK287300],74.2906
9,O=C(Nc1ccc2n(c1=O)C[C@@H]1CNC[C@H]2C1)c1ccc(F)cc1 [CBK289078],95.8656
10,CS(=O)(=O)c1ccc(C(=O)N(Cc2ccccc2)c2ccc(S(=O)(=O)N3CCOC3=O)cc2)cc1 [CBK024590],95.9283
11,C#CC1(NC(=O)NS(=O)(=O)c2ccc(C)cc2)CCCCC1 [CBK028805],98.5879
12,Cc1c(F)cccc1CNCCNC(=O)OC(C)(C)C [CBK056700],101.225
13,CN(C1CCCCC1)S(=O)(=O)c1cc(Cl)ccc1Cl [CBK261744],96.1311
14,CCCn1ncc(C(=O)N2CCc3c([nH]c4ccccc34)C2C)c1C (stereo not shown) [CBK281546],99.3378
15,CC(C)NC(=O)c1cc([C@H]2CC[C@H](CNC(=O)CN3CCCC3)CC2)nc2ccccc12 [CBK285861],97.5989
16,O=C(O)Cn1c2ccccc2c2nc3ccccc3nc21 [CBK263649],67.8281
17,Fc1cnc(N2CCCC3(CCOC3)C2)nc1N1CCOCC1 (stereo not shown) [CBK307131],72.039
18,CCOC(=O)C1(O)CCN(c2ccc(C#N)cc2F)CC1 [CBK304836],67.4612
19,NNC(=O)CCn1c2ccc(Cl)cc2c2cc(Cl)ccc21 [CBK261413],95.2441
20,CCN1CCN(c2ccc(NC(=O)Cn3cnc4c(=O)n(C)c(=O)n(C)c43)cc2Cl)CC1 [CBK269535],94.99
21,CCCNS(=O)(=O)c1cc(C(=O)O)ccc1OC [CBK287152],100.463

row,Structure (SMILES),% of control remaining
1,O=C(CSc1nc(-c2ccccc2)cc(=O)[nH]1)NCc1ccccc1 [CBK287734],54.9077
2,Cc1csc(C(Cc2cccs2)NC(=O)Cc2ccccn2)n1 (stereo not shown) [CBK285005],103.958
3,OCCC1CNCCN1CC1CCCCC1 (stereo not shown) [CBK270115],88.9875
4,Cc1cc2ccccc2n2c(=O)n(CC(=O)N3CCCCCC3)nc12 [CBK283883],93.3148
5,Cc1ccccc1S(=O)(=O)Nc1nccnc1-c1ccc2c(c1)OCO2 [CBK050941],97.5657
6,COCCc1nsc(N2CCCC(c3nccs3)C2)n1 (stereo not shown) [CBK305110],69.2981
7,CN(CCN1CCCCC1)C(=O)c1cc2c([nH]1)CCCC2 [CBK281836],103.708
8,Cc1cccc(-n2cnc3cc(C(=O)NCc4cccnc4)ccc32)c1 [CBK294455],107.223
9,O=C1CC(c2ccc(C(=O)O)cc2)c2sccc2N1 (stereo not shown) [CBK287119],96.163
10,CCCNS(=O)(=O)c1ccc(OCC(=O)N2CCN(C)CC2)c(C)c1 [CBK270169],82.7723
11,O=C1NC/C=C/CC2(CCN(C(=O)CCc3cccnc3)CC2)C(=O)NCCOc2ccccc21 [CBK292007],94.7262
12,Nc1ccc(Sc2nc3ccccc3nc2C(F)(F)F)cc1 [CBK089560],90.4739
13,Cc1ccccc1-n1ncc2c(=O)n(CC(=O)Nc3ccccc3)cnc21 [CBK287689],73.1086
14,O=C(COc1ccccc1)Nc1ccccc1CO [CBK263596],82.4776
15,O=c1[nH]cnc2c1cnn2Cc1ccccc1Cl [CBK287999],58.5045
16,COc1ccc2[nH]c(=O)c(CNc3ccc(CCc4nc5ccccc5n4C)cc3)cc2c1 [CBK286162],82.7447
17,O=C(NC1CC1)c1ccc(-n2cccn2)c(C#Cc2cccnc2)c1 [CBK282449],125.305
18,O=C(O)C1CCCCN1Cc1ccccc1 (stereo not shown) [CBK261687],84.1021
19,Cc1cc(N2CCC(N(C)C)CC2)nc(N)n1 [CBK167267],80.6651
